Measurements taken from the supplement of paper PMC12645437, “Orthogonal IMiD-Degron Pairs Induce Selective Protein Degradation in Cells” (ACS Chemical Biology, 2025).
Some of the results follow.

B1: Q9UKT9 (peptide)
chain: FHCPICGRRFTQKGNLLRHIKL
B2: Q9UKT9 (peptide)
chain: FICSVCGHMFTQKGNLLRHIKL
B3: Q9UKT9 (peptide)
chain: FSCEICGAEFTQKGNLLRHIKL
B4: Q9UKT9 (peptide)
chain: FCCSVCGHLFTQKGNLLRHIKL
B5: Q9UKT9 (peptide)
chain: FGCNQCGHHFTQKGNLLRHIKL
B6: Q9UKT9 (peptide)
chain: FLCNQCGRFFTQKGNLLRHIKL
B7: Q9UKT9 (peptide)
chain: LYCPICGFVCTQKGNLLRHIKL
B8: Q9UKT9 (peptide)
chain: FKCNQCGAAFTQKGNLLRHIKL
B9: Q9UKT9 (peptide)
chain: LACNQCGFQCTQKGNLLRHIKL
B10: Q9UKT9 (peptide)
chain: FWCDQCGATFTQKGNLLRHIKL
B11: Q9UKT9 (peptide)
chain: FCCPVCGAMFTQKGNLLRHIKL
B12: Q9UKT9 (peptide)
chain: LRCEICGFECTQKGNLLRHIKL
B13: Q9UKT9 (peptide)
chain: FGCDICGAVFTQKGNLLRHIKL
B14: Q9UKT9 (peptide)
chain: FVCNICGAMFTQKGNLLRHIKL

The sequences below were run against no compound (DMSO) (assay: log2 fold change of degron read counts, EGFP-low vs EGFP+ sorted cells; higher = lower degron-EGFP level without compound (poor expression or instability)). Conditions: compound: DMSO control; 18 h.
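Note: jurkat cells carrying a lentiviral library of mutant zinc finger degrons fused to EGFP plus mCherry, mCherry+ cells FACS sorted, degron abundance counted by next-generation sequencing.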

Sequence | log2 fold change of degron read counts
B1 | -1.39
B2 | -0.303
B3 | -1.72
B4 | -0.0677
B5 | 1.27
B6 | 1.18
B7 | 1.3
B8 | -1.46
B9 | -0.0882
B10 | -0.626
B11 | 0.0247
B12 | -1.09
B13 | -0.972
B14 | 0.0496
